The IC50 comes from the fitted curve, where viability falls to half of the control; a limit (>, <) means that the fit lies beyond the doses tested. AUC sums up the same curve from the lowest dose to the 256-fold higher top dose: 1 means no effect, lower means more sensitive. The top dose, if marked as inferred, comes from the curve model; the source does not state it.
compound: CC1=C(C(=O)Nc2cc3cn[nH]c3cc2F)C(c2ccc(C(F)(F)F)cc2)CC(=O)N1 [GSK429286A]; test: Viability of human cancer cell lines after 72 h of drug (GDSC screen); details: top dose inferred
Procedure: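 Human cancer cell lines in 384-well plates, medium with 10% serum, drug for 72 h over a 256-fold dose range (nine 2-fold or five 4-fold steps up to the top dose). Adherent lines were fixed and stained with the nucleic acid dye Syto60, suspension lines read with resazurin; signal relative to control wells, capped at 0 and 100%. One two-parameter sigmoid per drug and line, fitted in a mixed model over all curves with the slope shared within a line.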

Cell Line | AUC | IC50 [µM]
KMRC-20 (kidney, adherent, top dose 20 µM) | 0.979 | > 20
NCI-H1770 (non-small cell lung carcinoma, suspension, top dose 20 µM) | 0.991 | > 20
KMRC-1 (kidney, adherent, top dose 20 µM) | 0.986 | > 20
C2BBe1 (large intestine, adherent, top dose 20 µM) | 0.986 | > 20
U-118-MG (glioma, adherent, top dose 20 µM) | 0.986 | > 20
42-MG-BA (glioma, adherent, top dose 20 µM) | 0.975 | > 20
GB-1 (glioma, adherent, top dose 20 µM) | 0.967 | > 20
NCI-H1573 (lung adenocarcinoma, adherent, top dose 20 µM) | 0.983 | > 20
NCI-H522 (lung adenocarcinoma, adherent, top dose 20 µM) | 0.947 | > 20
OC-314 (ovary, adherent, top dose 20 µM) | 0.963 | > 20
YKG-1 (glioma, adherent, top dose 20 µM) | 0.959 | > 20
RPMI-8866 (chronic myeloid leukaemia, suspension, top dose 20 µM) | 0.984 | > 20
NCI-H2227 (small cell lung carcinoma, semi-adherent, top dose 20 µM) | 0.718 | 5.69
MDA-MB-157 (breast, adherent, top dose 20 µM) | 0.986 | > 20
MDA-MB-330 (breast, adherent, top dose 20 µM) | 0.976 | > 20
HCC2998 (large intestine, adherent, top dose 20 µM) | 0.981 | > 20
JM1 (B-cell lymphoma, suspension, top dose 20 µM) | 0.898 | 18.9
IGR-37 (melanoma, adherent, top dose 20 µM) | 0.976 | > 20
NCI-H292 (lung adenocarcinoma, adherent, top dose 20 µM) | 0.96 | > 20
EFO-27 (ovary, adherent, top dose 20 µM) | 0.97 | > 20
D-502MG (glioma, adherent, top dose 20 µM) | 0.962 | > 20

Cell Line | AUC | IC50 [µM]
RO82-W-1 (thyroid, adherent, top dose 20 µM) | 0.968 | > 20
OMC-1 (cervix, adherent, top dose 20 µM) | 0.97 | > 20
SK-MEL-2 (melanoma, adherent, top dose 20 µM) | 0.981 | > 20
PA-TU-8902 (pancreas, adherent, top dose 20 µM) | 0.967 | > 20
HDLM-2 (Hodgkin lymphoma, suspension, top dose 20 µM) | 0.979 | > 20
SUP-B15 (lymphoblastic leukaemia, suspension, top dose 20 µM) | 0.729 | 5.41
DG-75 (Burkitt lymphoma, suspension, top dose 20 µM) | 0.982 | > 20
RCC10RGB (kidney, adherent, top dose 10.24 µM) | 0.928 | > 10.2
BC-3 (B-cell lymphoma, suspension, top dose 20 µM) | 0.984 | > 20
CS1 (bone, adherent, top dose 20 µM) | 0.948 | > 20
Ca-Ski (cervix, adherent, top dose 20 µM) | 0.934 | > 20
OE19 (oesophagus, adherent, top dose 20 µM) | 0.986 | > 20
KYSE-140 (oesophagus, adherent, top dose 20 µM) | 0.917 | > 20
JHU-022 (head and neck, adherent, top dose 20 µM) | 0.941 | > 20
LS-411N (large intestine, adherent, top dose 20 µM) | 0.837 | 17.7
KYSE-180 (oesophagus, adherent, top dose 20 µM) | 0.967 | > 20
NCC021 (kidney, adherent, top dose 20 µM) | 0.845 | 18.2
MS751 (cervix, adherent, top dose 20 µM) | 0.988 | > 20
GOTO (neuroblastoma, adherent, top dose 20 µM) | 0.967 | > 20
SK-ES-1 (Ewing sarcoma, semi-adherent, top dose 20 µM) | 0.971 | > 20

Source: the supplement of paper PMC4967469
